This is an account of results in the supplement of paper PMC11876631.

To fix the notation:
B1: cysD I20A (protein)
chain: MDQIRLTHLRQLEAESIHIAREVAAEFSNPVMLYSIGKDSSVMLHLARKAFYPGTLPFPLLHVDTGWKFREMYEFRDRTAKAYGCELLVHKNPEGVAMGINPFVHGSAKHTDIMKTEGLKQALNKYGFDAAFGGARRDEEKSRAKERIYSFRDRFHRWDPKNQRPELWHNYNGQINKGESIRVFPLSNWTEQDIWQYIWLENIDIVPLYLAAERPVLERDGMLMMIDDNRIDLQPGEVIKKRMVRFRTLGCWPLTGAVESNAQTLPEIIEEMLVSTTSERQGRVIDRDQAGSMELKKRQGYF
B2: cysD I20W (protein)
chain: B1 chain with A20W
B3: cysD I20Q (protein)
chain: B1 chain with A20Q
B4: accA I116Q (protein)
chain: MSLNFLDFEQPIAELEAKIDSLTAVSRQDEKLDINIDEEVHRLREKSVELTRKIFADLGAWQIAQLARHPQRPYTLDYVRLAFDEFDELAGDRAYADDKAIVGGIARLDGRPVMIQGHQKGRETKEKIRRNFGMPAPEGYRKALRLMQMAERFKMPIITFIDTPGAYPGVGAEERGQSEAIARNLREMSRLGVPVVCTVIGEGGSGGALAIGVGDKVNMLQYSTYSVISPEGCASILWKSADKAPLAAEAMGIIAPRLKELKLIDSIIPEPLGGAHRNPEAMAASLKAQLLADLADLDVLSTEDLKNRRYQRLMSYGYA
B5: cysC V102P (protein)
chain: MALHDENVVWHSHPVTVQQRELHHGHRGVVLWFTGLSGSGKSTVAGALEEALHKLGVSTYLLDGDNVRHGLCSDLGFSDADRKENIRRVGEVANLMVEAGLPVLTAFISPHRAERQMVRERVGEGRFIEVFVDTPLAICEARDPKGLYKKARAGELRNFTGIDSVYEAPESAEIHLNGEQLVTNLVQQLLDLLRQNDIIRS
B6: cysC L48D (protein)
chain: B5 chain with L48D, P102V
B7: cysC L104P (protein)
chain: B5 chain with P102V, L104P
B8: cysC L104D (protein)
chain: B5 chain with P102V, L104D
B9: cysC V103P (protein)
chain: B5 chain with P102V, V103P
B10: cysC V118Q (protein)
chain: B5 chain with P102V, V118Q
B11: cysC L104W (protein)
chain: B5 chain with P102V, L104W
B12: cysC V118A (protein)
chain: B5 chain with P102V, V118A
B13: cysC L104A (protein)
chain: B5 chain with P102V, L104A
B14: cysC V118W (protein)
chain: B5 chain with P102V, V118W
B15: cysC V118P (protein)
chain: B5 chain with P102V, V118P
B16: cysC L104Q (protein)
chain: B5 chain with P102V, L104Q
B17: cysC L48A (protein)
chain: B5 chain with L48A, P102V
B18: cysC L48Q (protein)
chain: B5 chain with L48Q, P102V

Changes are numbered by the printed parent chain. In names and notes the source's numbering stands. ± gives the standard deviation of the averaged measurements. Laboratory Escherichia coli strains with one amino-acid change in an essential protein, pooled on minimal glucose agar with carbenicillin or gentamicin at twice the control MIC (plus kanamycin and chloramphenicol for the plasmids), 48 h. Fold change of barcode share against drug-free plates; higher = less susceptible. Active = above 20 in both replicates (the paper's putatively resistant). '<' = one read or none on drug, '>' = one read or none on a drug-free plate. Shares are relative, so most strains fall below 1 when a few take over. Listed are strains with at least 15 reads on both drug-free plates, and hits; most hits rest on fewer reference reads. Replicate rank correlation about 0.5. Edits are read from barcodes.

The target of the first series is Escherichia coli (laboratory strain). Put plainly: barcode share on antibiotic plates over drug-free plates; higher = less susceptible. The conditions noted are these: antibiotic: carbenicillin; 2× MIC (3.1 µg/mL). On the procedure:
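A pool of E. coli strains, each edited to carry one amino-acid change in an essential protein, was grown for 48 h on minimal glucose agar with or without antibiotic; strain barcodes were sequenced; mean of two replicates.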
With B1, the “fold change of barcode share” value was determined as 1.36 ± 0.79.

Consider B2, for which the “fold change of barcode share” value was found to be 0.648 ± 0.18.

As to B3, the “fold change of barcode share” value was found to be 0.674 ± 0.054.

Turning to B4, the “fold change of barcode share” value is 0.205 ± 0.0083.

Regarding B5, the “fold change of barcode share” value amounted to 0.61 ± 0.3.

With B6, the “fold change of barcode share” value turned out to be 1.62 ± 0.42.

With B7, the “fold change of barcode share” value was 1.06 ± 0.12.

In the case of B8, the “fold change of barcode share” value was > 57.3 [active].

For the protein B9, the “fold change of barcode share” value worked out at 0.82 ± 0.18.

For B10, the “fold change of barcode share” value was 25.4 [active].

Take B11: the “fold change of barcode share” value was > 35.6 [active].

Regarding B12, the “fold change of barcode share” value came out at 1.07 ± 0.047.

With B13, the “fold change of barcode share” value turned out to be 0.488 ± 0.2.

As to B14, the “fold change of barcode share” value is 1.38 ± 0.062.

For the protein B15, the “fold change of barcode share” value stood at 4.49 ± 2.4.

With B16, the “fold change of barcode share” value is 1.28 ± 0.22.

For B17, the “fold change of barcode share” value was determined as 0.425 ± 0.052.

Turning to B18, the “fold change of barcode share” value is 0.689 ± 0.13.

Staying with this series, now noted: antibiotic: gentamicin; 2× MIC (MIC 0.45 µg/mL).
Regarding B1, the “fold change of barcode share” value was less than 0.0187.

Take B4: the “fold change of barcode share” value was less than 0.0112.

Take B5: the “fold change of barcode share” value was found to be 0.0123 ± 0.0089.

As to B6, the “fold change of barcode share” value is less than 0.0167.

On to B9, for which the “fold change of barcode share” value was 0.0176 ± 0.013.

Regarding B12, the “fold change of barcode share” value is 0.0336 ± 0.033.

B13: the “fold change of barcode share” value was found to be 0.00683 ± 0.0043.

For B14, the “fold change of barcode share” value worked out at 0.048 ± 0.0014.

For the protein B16, the “fold change of barcode share” value turned out to be 0.0556 ± 0.053.

B18: the “fold change of barcode share” value was determined as 0.034 ± 0.033.
